# System: IL-18 production in dendritic cells
# Assay: qPCR of Il18 in bone marrow derived dendritic cells treated with AOM or DMH
# Conditions: STING-dependent, 1 mM for 8 hours
# Protocol: FIGS. 3A-3C show suppression of IL22BP expression in STING-deficient mice: (FIG. 3A) Fold changes from gene array analysis of Il18 in WT and SKO MEFs administrated with 4 ug/ml of dsDNA90 and IFNβ for 8 hours (Left). qPCR analysis of Il18 in WT and SKO MEFs transfected with 4 μg/ml of dsDNA90 and cyclic-di-GMP-AMP (cGAMP) for 8 hours (Middle). qPCR analysis of Il18 in bone marrow derived dendritic cells (BMDCs) from WT and SKO mice. BMDCs were treated with 1 mM of AOM and 1 mM of DMH for 8 hours (Right). (FIG. 3B) Schematic representation, body weight, and qPCR analysis of IL18, IL22 bp and IL22 from WT and SKO colon during one cycle of DSS administration for 5 days followed by 2 days of normal water. (FIG. 3C) qPCR analysis of IL18, IL22 bp and IL22 in WT and SKO colon tissue from FIG. 2. Data is representative of at least two independent experiments. Error bars indicate s.d. *; p<0.05, Student's t-test.
# In this situation, MyD88 exerts a protective effect by facilitating the production of IL-18 through the IL-18R, which is required to inhibit IL-22BP. IL-22BP is necessary to suppress IL-22 function, which can promote the proliferation of intestinal epithelial cells following damage by carcinogens or inflammatory agents. Mice lacking IL-18 or IL-22BP are highly susceptible to CAC, similar to STING-deficient mice. […]
row,Structure (SMILES),production of IL-18
1,"CN=[N+](C)[O-] [AOM, Azoxymethane]",could also trigger the production of IL-18
2,"CNNC [DMH, 1,2-dimethylhydrazine]",could also trigger the production of IL-18

# — patent publication US10821142B2, “Cancer treatment and diagnosis” (priority 2015, dated 2020)
